Test results published in publication PMC4336329 (PLoS ONE, 2015).
Among all 310,000 compounds or so, about 2,200 (0.71%) showed an effect of 50% or more. The effect is printed as a negative number. The list shows a part of the results.

Molecular target: human ether-à-go-go-related gene (hERG) potassium channel (human, UniProt Q12809)
Experiment: primary screen, population patch clamp on CHO cells stably expressing hERG

Sequence of human ether-à-go-go-related gene (hERG) potassium channel (Q12809 whole entry, looked up): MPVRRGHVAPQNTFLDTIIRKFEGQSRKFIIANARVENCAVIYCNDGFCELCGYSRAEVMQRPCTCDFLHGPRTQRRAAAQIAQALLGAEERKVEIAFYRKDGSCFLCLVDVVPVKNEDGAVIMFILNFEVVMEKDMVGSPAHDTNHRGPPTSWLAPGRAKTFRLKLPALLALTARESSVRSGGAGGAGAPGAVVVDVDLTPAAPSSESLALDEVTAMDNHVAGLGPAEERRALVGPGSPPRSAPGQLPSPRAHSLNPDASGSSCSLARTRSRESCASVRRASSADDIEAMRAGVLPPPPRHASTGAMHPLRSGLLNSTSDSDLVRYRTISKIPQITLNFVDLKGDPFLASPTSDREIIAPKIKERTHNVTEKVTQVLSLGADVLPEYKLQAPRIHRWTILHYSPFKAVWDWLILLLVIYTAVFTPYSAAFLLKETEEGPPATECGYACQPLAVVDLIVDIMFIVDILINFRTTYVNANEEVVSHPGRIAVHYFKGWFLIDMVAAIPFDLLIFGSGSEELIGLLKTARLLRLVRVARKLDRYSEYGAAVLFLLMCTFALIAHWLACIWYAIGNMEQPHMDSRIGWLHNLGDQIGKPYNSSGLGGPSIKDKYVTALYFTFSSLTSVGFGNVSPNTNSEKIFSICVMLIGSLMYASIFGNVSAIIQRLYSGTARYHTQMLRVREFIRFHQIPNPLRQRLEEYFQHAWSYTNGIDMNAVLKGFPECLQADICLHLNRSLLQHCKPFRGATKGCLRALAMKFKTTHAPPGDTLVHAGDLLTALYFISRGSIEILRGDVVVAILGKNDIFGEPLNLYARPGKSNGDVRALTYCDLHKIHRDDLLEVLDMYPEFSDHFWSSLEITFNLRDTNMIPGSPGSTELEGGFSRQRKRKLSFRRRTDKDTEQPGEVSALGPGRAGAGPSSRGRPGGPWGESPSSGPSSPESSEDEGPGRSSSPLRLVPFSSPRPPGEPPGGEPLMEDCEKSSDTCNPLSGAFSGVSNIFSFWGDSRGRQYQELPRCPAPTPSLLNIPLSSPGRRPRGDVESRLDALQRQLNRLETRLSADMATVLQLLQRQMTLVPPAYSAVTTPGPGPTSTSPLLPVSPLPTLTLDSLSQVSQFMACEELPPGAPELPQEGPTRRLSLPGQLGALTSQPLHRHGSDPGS

| SMILES | hERG current change (%, negative = inhibition) at 1uM |
| --- | --- |
| CCN(CC)S(=O)(=O)c1ccc(Cl)c(C(=O)Oc2cccnc2)c1 | 3.93% |
| CC(C)(C)n1nnnc1C(c1cccc(C#N)c1)N1CCCCCC1 (centres unmarked) | 6.61% |
| O=C(NC1CCN(c2ncccn2)CC1)c1ccccc1F | 12.8% |
| COc1ccc(CC(=O)NCc2nc(-c3ccccc3)no2)cc1 | 7.91% |
| Cc1ccc(-c2nn(CC(=O)O)c(=O)c3ccccc23)cc1 | 0.802% |
| COc1ccc(CCNC(=O)CSc2n[nH]c(N)n2)cc1 | 7.56% |
| Cc1[nH]c(=O)[nH]c(=O)c1CSCC(=O)OCC(=O)Nc1ccccn1 | 9.37% |
| COc1cccc(OCc2cc(C(=O)N3CCN(c4ccccc4OC)CC3)no2)c1 | 15.7% |
| C/C=C\C=C/C(=O)Nc1cccc(C2=NOC3(C2)C[C@@H](C(N)=O)N(C(=O)COc2ccc(Cl)cc2)C3)c1 (some centres unmarked) | 5.84% |
| Cc1ccccc1Nc1nc(N)nc(COC(=O)CCS(=O)(=O)c2ccccc2)n1 | -0.672% |
| CC(=O)NC(C)c1cc(Cl)c2ccccc2c1O (centres unmarked) | 6.65% |
| N#Cc1ccccc1S(=O)(=O)N1CCN(CC(=O)Nc2ccccc2C(=O)NC2CC2)CC1 | -25.4% |
| COC(C(=O)NC(C(C)C)C(C)C)c1ccccc1 (centres unmarked) | -2.55% |
| COC(=O)C1=C(C)N(Cc2ccccc2)C(=NCC(C)C)N[C@H]1c1ccccc1 | -5.41% |
| Cc1ccc(C)c(NC(=O)CNS(=O)(=O)c2ccccc2)c1 | 9.25% |
| CC1SC(=S)N(c2ccc(N(C)C)cc2)C1=O (centres unmarked) | 15.5% |
| CC1=C([N+](=O)[O-])C(c2cccc(Br)c2)C2=C(N1)c1ccccc1C2=O (centres unmarked) | 9.32% |
| Cc1cccc2c1CC(C)(C)N=C2C1=C(O)CC(C)(C)CC1=O | 2.54% |
| COC(=O)c1c(N)sc(C(C)=O)c1C | 3.12% |
| Cc1cc(NC(=O)CSCC(=O)NCc2cccc(C(F)(F)F)c2)no1 | 4.81% |
| Fc1cccc(CCN2CCNC[C@@H]2c2ccccc2)c1 | 8.3% |
| CCOC(=O)C1C(=O)C=C(C)C(C(=O)OCC)C1c1cccc([N+](=O)[O-])c1 (centres unmarked) | 6.14% |

| SMILES | hERG current change (%, negative = inhibition) at 1uM |
| --- | --- |
| O=C(N/N=C/c1cn(-c2ccccc2)nc1-c1cccnc1)c1ccccc1 | -13.1% |
| Cn1nc(C(=O)Nc2cc(Cl)ccc2N2CCCC2)c2ccccc2c1=O | 6.96% |
| CN(C)CCNc1oc(COc2ccc(Cl)cc2Cl)nc1C#N | 15.9% |
| O=C(Nc1nc2ccccc2[nH]1)C1CC1 | 8.25% |
| O=C(CCC(=O)N(c1cccc(F)c1)C(C(=O)NC1CCCC1)c1ccncc1)Nc1cccnc1 (centres unmarked) | 15.1% |
| COc1ccc(C(C)(C)C)cc1NC(=O)c1cncc(Br)c1 | 7.8% |
| O=C(NC1CCCCC1)c1cccnc1Sc1ccccc1Cl | 11.4% |
| COCCNC(=O)CS(=O)Cc1nc(-c2ccc(OC)cc2)oc1C (centres unmarked) | 16.2% |
| S=C1NCCOCCOCCOCCOCCNC(=S)N2CCOCCOCCN1CCOCC2 | 3.89% |
| CCc1noc(C)c1C(=O)Nc1nc(-c2ccc(NC(C)=O)cc2)cs1 | 15.3% |
| COc1ccccc1NC(=S)NN1CCN(C)CC1 | -3.62% |
| COC(=O)C1=CN(c2ccc(F)cc2)C=C(C(=O)OC)C1c1cccc(Br)c1 | 15.9% |
| COc1ccc(CCNC(=O)C(C(=O)c2ccccc2)n2cc(Cl)ccc2=O)cc1OC (centres unmarked) | 6.77% |
| O=C(NCCO)c1cccc2c1C(=O)c1ccccc1-2 | 0.608% |
| N#C/C(=N\Nc1ccc(Cl)cc1)C(=O)c1ccccc1 | 8.15% |
| CC(C)CNC(=O)c1ccc(Cl)c(NC(=O)COc2ccccc2)c1 | 13.8% |
| CC(C)[C@H]1C=C(C(=O)O)O[C@@H](OCCCCO)C1 | 7.8% |
| CSCCC(NS(=O)(=O)c1cccc(C(F)(F)F)c1)C(=O)N(C)Cc1ccc2c(c1)OCCO2 (centres unmarked) | 3.37% |
| O=C(CN1CCc2ccccc2C1)Nc1ccccc1C(=O)NC1CC1 | 3.95% |
| O=C(CCNC(=O)c1ccccc1)NCC1CCCCC1 | 6.82% |
| CC(OC(=O)c1ccc(S(=O)(=O)N2CCOCC2)cc1)c1ccccc1 (centres unmarked) | -8.54% |
| Cc1ccccc1NC(=O)NC1(C(=O)N2CCCC2)CCCCC1 | 3.15% |
